# Source: article PMC9911399, “Two distinct binding modes provide the RNA-binding protein RbFox with extraordinary sequence specificity”
# Changes are numbered by the printed parent chain; changes in the protein carry UniProt numbers. This is one part of the list.
# T1: RBFOX1 RRM RbFoxmut (Fox-RRM*) (Homo sapiens, UniProt Q9NWB1 109-208, R118D;E147R;N151S;E152T)
# T1 sequence: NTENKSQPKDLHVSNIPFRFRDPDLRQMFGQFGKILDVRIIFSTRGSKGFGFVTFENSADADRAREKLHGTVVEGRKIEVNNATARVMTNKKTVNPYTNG
# B1: AUAUUGU (DNA:RNA)
# RNA: GGGAGACCGGAAUUCAGAUUGUCCAUAUUGUUUAAAUCCCGUCGUAGCCACCA
# DNA 1: CAATCTGAATTCCGGTCTCCC
# DNA 2: TGGTGGCTACGACGGGATT
# B2: ACUAGUG (DNA:RNA)
# RNA: B1 RNA with U26C, A27U, U28A, U29G, G30U, U31G
# DNA 1: CAATCTGAATTCCGGTCTCCC
# DNA 2: TGGTGGCTACGACGGGATT
# B3: GUCAGUA (DNA:RNA)
# RNA: B1 RNA with A25G, A27C, U28A, U29G, G30U, U31A
# DNA 1: CAATCTGAATTCCGGTCTCCC
# DNA 2: TGGTGGCTACGACGGGATT
# B4: CGUAGCG (DNA:RNA)
# RNA: GGGAGACCGGAAUUCAGAUUGUCCCGUAGCGUUAAAUCCCGUCGUAGCCACCA
# DNA 1: CAATCTGAATTCCGGTCTCCC
# DNA 2: TGGTGGCTACGACGGGATT
# B5: CUUUCCC (DNA:RNA)
# RNA: B4 RNA with G26U, A28U, G29C, G31C
# DNA 1: CAATCTGAATTCCGGTCTCCC
# DNA 2: TGGTGGCTACGACGGGATT
# B6: CGGGAAA (DNA:RNA)
# RNA: B4 RNA with U27G, A28G, G29A, C30A, G31A
# DNA 1: CAATCTGAATTCCGGTCTCCC
# DNA 2: TGGTGGCTACGACGGGATT
# B7: CUUUUCU (DNA:RNA)
# RNA: B1 RNA with A25C, A27U, G30C
# DNA 1: CAATCTGAATTCCGGTCTCCC
# DNA 2: TGGTGGCTACGACGGGATT
# B8: UUCAUAC (DNA:RNA)
# RNA: B1 RNA with A25U, A27C, U28A, G30A, U31C
# DNA 1: CAATCTGAATTCCGGTCTCCC
# DNA 2: TGGTGGCTACGACGGGATT
# B9: CCAGUGA (DNA:RNA)
# RNA: B1 RNA with A25C, U26C, U28G, U31A
# DNA 1: CAATCTGAATTCCGGTCTCCC
# DNA 2: TGGTGGCTACGACGGGATT
# Target: T1, RBFOX1 RRM RbFoxmut (Fox-RRM*)
# Assay: EMSA; HiTS-Eq, 1 nM pool, 10 min; buffer printed only for the single-RNA assays: 10 mM Tris pH 7.5, 150 mM NaCl, 3.4 mM EDTA, 0.001% NP-40, 30 C
# Settings: tags: His6 N-terminal (pET28a); label: 5' 32P
# In short: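 These values rest on relative association constants, computed from read-count changes of each RNA species versus the control reaction and normalised to the cognate motif. Reads came from free RNA recovered by 8% native PAGE after purified RbFox RRM (wild type or mutant) at increasing concentrations was equilibrated for 10 min in 50 µL with 1 nM of a 5′-radiolabelled pool with 7 randomized nucleotides and DNA-annealed flanks.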
row,Binder,binding signal
1,B1,0.171 KA relative to UGCAUGU
2,B2,0.126 KA relative to UGCAUGU
3,B3,0.143 KA relative to UGCAUGU
4,B4,0.152 KA relative to UGCAUGU
5,B5,0.0424 KA relative to UGCAUGU
6,B6,0.102 KA relative to UGCAUGU
7,B7,0.0489 KA relative to UGCAUGU
8,B8,0.0803 KA relative to UGCAUGU
9,B9,0.108 KA relative to UGCAUGU
